The source gives no read counts; variants with many changes may rest on few reads.
B1: LINE1-mini (parent)
chain: GGCAGAGCUCAACACAGCGUGGCAAAGUGGCUGUGGCUAGACUGCC

Variants of: B1
Assay: self-cleavage, relative activity (ratio to wild type); higher = more cleavage; in vitro, sequencing; the parent is a self-cleaving ribozyme

Variant | self-cleavage
GGCAGAGCUCAACACAGCGUGGCAAAGAGGCUUUGGAUAGCCUGCC [U28A G33U C37A A41C] | 0.1
GGCAGAGCUCAACACAGCGUGGCAAAUUAGCUCUGUCUAGACUGCC [G27U G29A G33C G36U] | 0.07
GGCAGAGCUCAACACAGCGUGGCAAAGCGGUUGUGGCUGGACUGCC [U28C C31U A39G] | 0.03
GGCAGAGCUCAACACAGCGUGGCAAAUUGGCCGAGGCUACGCUGCG [G27U U32C U34A G40C A41G C46G] | 0.06
GGCAGAGCUCAACACAGCGUGGCAAAGAGACUGUGGCUAGACUGGC [U28A G30A C45G] | 0.64
GGCAGAGCUCAACACAGCGUGGCAAACAGGCUGUGGCUAGACCGCU [G27C U28A U43C C46U] | 0.01
GGCAGAGCUCAACACAGCGUGGCAAACAGGCUGUGUCUAGACUCUC [G27C U28A G36U G44C C45U] | 0.02
GGCAGAGCUCAACACAGCGUGGCAAAUUAGCUGUGGCUUGACUUCC [G27U G29A A39U G44U] | 0.08
GGCAGAGCUCAACACAGCGUGGCAAAUGGGCUGUGUAUAGACUGCC [G27U U28G G36U C37A] | 0.01
GGCAGAGCUCAACACAGCGUGGCAAAGAGGAUGUGGUUAGACUCCC [U28A C31A C37U G44C] | 0.07
GGCAGAGCUCAACACAGCGUGGCAAAUUUGCUGGGGCUAGACUGCC [G27U G29U U34G] | 0.11
GGCAGAGCUCAACACAGCGUGGCAAAGAGGCUAGUGCUAGACUGCC [U28A G33A U34G G35U] | 0.01
GGCAGAGCUCAACACAGCGUGGCAAAUUGGCUCUUGCUAGACUUCC [G27U G33C G35U G44U] | 0.08
GGCAGAGCUCAACACAGCGUGGCAAAUGGUCUUUGGCUAGACUGCC [G27U U28G G30U G33U] | 0.33
GGCAGAGCUCAACACAGCGUGGCAAAGAGGCUGUGGAUAGAAUGCC [U28A C37A C42A] | 0.03
GGCAGAGCUCAACACAGCGUGGCAAAUUGGCUGUGGGUAGACUGAC [G27U C37G C45A] | 0.02
GGCAGAGCUCAACACAGCGUGGCAAAGAGGCUGUGGCUAGACUGAU [U28A C45A C46U] | 0.36
GGCAGAGCUCAACACAGCGUGGCAAAGAGGUUGUGGCUAGACUGAC [U28A C31U C45A] | 0.08
GGCAGAGCUCAACACAGCGUGGCAAAUUGUCUGUGGCUUGACUGCC [G27U G30U A39U] | 1.19

Variant | self-cleavage
GGCAGAGCUCAACACAGCGUGGCAAAGAGCCUGUGGCUAGACUACC [U28A G30C G44A] | 0.13
GGCAGAGCUCAACACAGCGUGGCAAAUAGGCUGUGGCUUGACUGCC [G27U U28A A39U] | 0.21
GGCAGAGCUCAACACAGCGUGGCAAAUUGGCUUUGGCUAGACUACC [G27U G33U G44A] | 0.07
GGCAGAGCUCAACACAGCGUGGCAAAGAGGCUGCGGUUAGUCUGCC [U28A U34C C37U A41U] | 0.02
GGCAGAGCUCAACACAGCGUGGCAAAUUGGUUGGGGCUAGACUGCC [G27U C31U U34G] | 0.02
GGCAGAGCUCAACACAGCGUGGCAAAUUAGCUGUGGCUAGCCUGCC [G27U G29A A41C] | 0.04
GGCAGAGCUCAACACAGCGUGGCAAACCAGCUGUGGCUAGACUGCC [G27C U28C G29A] | 0.46
GGCAGAGCUCAACACAGCGUGGCAAACUGGCUGAGGGUCGACUGCC [G27C U34A C37G A39C] | 0.03
GGCAGAGCUCAACACAGCGUGGCAAAGAGUCUGUGGCUAGACUACC [U28A G30U G44A] | 0.06
GGCAGAGCUCAACACAGCGUGGCAAAUUGGCUGUGGCUGGACUGAC [G27U A39G C45A] | 0.07
GGCAGAGCUCAACACAGCGUGGCAAAUUGGCUGUGGCUGGACUGGC [G27U A39G C45G] | 0.51
GGCAGAGCUCAACACAGCGUGGCAAAUUGCCUGUGUCUAGACUGCC [G27U G30C G36U] | 0.05
GGCAGAGCUCAACACAGCGUGGCAAAUUGGCUGUGCGUAGACUGCC [G27U G36C C37G] | 0.29
GGCAGAGCUCAACACAGCGUGGCAAAUUGGCUGUAGCUAGACUCCC [G27U G35A G44C] | 0.07
GGCAGAGCUCAACACAGCGUGGCAAAGAGGCUGGGGCGAGACAGCC [U28A U34G U38G U43A] | 0.06
GGCAGAGCUCAACACAGCGUGGCAAACUGGCCGUGGCUACACUGCC [G27C U32C G40C] | 0.1
GGCAGAGCUCAACACAGCGUGGCAAAUUGGUUGUGGCUGGACUGCA [G27U C31U A39G C46A] | 0.15
GGCAGAGCUCAACACAGCGUGGCAAAGAGGCUGUGGUUAUACUGCC [U28A C37U G40U] | 0.02
GGCAGAGCUCAACACAGCGUGGCAAAUUGUCUGUGGCUACACAGGC [G27U G30U G40C U43A C45G] | 0.03

Variant | self-cleavage
GGCAGAGCUCAACACAGCGUGGCAAAUUGACUGUGGCUAGACCGUC [G27U G30A U43C C45U] | 0.15
GGCAGAGCUCAACACAGCGUGGCAAACUGGCUGUGGCGAGCCUGCC [G27C U38G A41C] | 0.03
GGCAGAGCUCAACACAGCGUGGCAAAUUGGCUGUUUCUAGAAUGCC [G27U G35U G36U C42A] | 0.14
GGCAGAGCUCAACACAGCGUGGCAAAUUGGCUGUGGCUAAACUGAC [G27U G40A C45A] | 0.37
GGCAGAGCUCAACACAGCGUGGCAAAUUGGCUGUGCCAAGACUGCA [G27U G36C U38A C46A] | 0.04
GGCAGAGCUCAACACAGCGUGGCAAAUUCGCUGUGGCCAGACUGAC [G27U G29C U38C C45A] | 0.03
GGCAGAGCUCAACACAGCGUGGCAAAGAGGGUGUGGCACGACUGCC [U28A C31G U38A A39C] | 0.05
GGCAGAGCUCAACACAGCGUGGCAAACUGGCUGACGCUAGGCUGCG [G27C U34A G35C A41G C46G] | 0.08
GGCAGAGCUCAACACAGCGUGGCAAAGAGGCUGUGGAUGGACUGCC [U28A C37A A39G] | 0.03
GGCAGAGCUCAACACAGCGUGGCAAAGAGGCUCUGGCUCGACUGCC [U28A G33C A39C] | 0.09
GGCAGAGCUCAACACAGCGUGGCAAAUUAGCUGUGGCUAGACUCCC [G27U G29A G44C] | 0.45
GGCAGAGCUCAACACAGCGUGGCAAACCGGCUGUGGCUAGAUUGCC [G27C U28C C42U] | 0.18
GGCAGAGCUCAACACAGCGUGGCAAAUUUGCAGUGGCUAGACUGCC [G27U G29U U32A] | 0.68
GGCAGAGCUCAACACAGCGUGGCAAAUUCGUUCUGGCUAGACUGAC [G27U G29C C31U G33C C45A] | 0.01
GGCAGAGCUCAACACAGCGUGGCAAAUUAGCGGUGGCUAGACUGCC [G27U G29A U32G] | 0.75
GGCAGAGCUCAACACAGCGUGGCAAAUUGUCUGUGGCUAGACUACC [G27U G30U G44A] | 0.14
GGCAGAGCUCAACACAGCGUGGCAAAUUGGGCGUGGCUAGACUGCC [G27U C31G U32C] | 0.18
GGCAGAGCUCAACACAGCGUGGCAAAUUGAAUAUGGCUAGACUGCC [G27U G30A C31A G33A] | 0.02

Source: the RNAGym collection of RNA variant scans (doi:10.7554/elife.90254)
